Experimental data taken from the supplement of paper PMC10338343.
± gives the standard deviation. Whole data set: some 3,700 sequences, median “pre-steady-state target cleavage rate” near 0.02, cut for the highest 2% near 0.23. The entries are a selection whose mix differs from that of the whole data set.

System: MILI (PIWIL2) piRISC loaded with Kctd7 piRNA (26 nt)
Test: pre-steady-state target cleavage rate (min^-1); MIWI and MILI are mouse PIWI proteins and EfPiwi is from a freshwater sponge; tags in brackets are library labels; higher = faster piRNA-guided slicing of the target
Details: guide: Kctd7 piRNA 5'p-UGUUAAUCUCUCAGAGAAGGUGACAG; auxiliary factor: 500 nM mouse GTSF1
In short: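 Cleave-'n-Seq measured uncleaved targets by sequencing after a transcribed, DNA-blocked target RNA library […] was mixed with 1 nM active affinity-purified piRISC holding one synthetic guide, with or without 500 nM GTSF1 partner protein, at 33 °C in HEPES–potassium acetate buffer for 0–8 or 0–960 min. Counts were normalised to depth and to weakly complementary targets, three trials were pooled, and k3 was capped at 0.0001 min^-1. A burst-and-steady-state fit gave the pre-steady-state cleavage rate.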
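Note: 1 nM active piRISC with 0.1 nM target library at 33 °C single turnover.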

Row | Sequence | pre-steady-state target cleavage rate
1 | UAGUGACAGUGUUUCUCUGAGAGAUUAACA | 0.0178 ± 0.0031
2 | UAGUGACAGUGCUUCACUGUGAGAUUAACA | 0.0101 ± 0.0032
3 | UAGUCUGUGACCUUCUCUGAGAGAAUAACA | 0.0745 ± 0.014
4 | UAGUCUGUGACCUUCUCUGAGAGUUUAACA | 0.0891 ± 0.013
5 | UAGUGACAGUCGUUCUCUGUGAGAUUAACA | 0.0095 ± 0.0024
6 | UAGUGACUCACCUUCUCGGAGAGAUUAACA | 0.0917 ± 0.013
7 | UAGUGACAGUGGAUCUCUGAGAGAUUAACG [g2:g17:cont:t1G] | 0.00311 ± 0.002
8 | UAGUGACAGUGCCUCUCUGAGAGAUUAACA | 0.0078 ± 0.0026
9 | UAGUCAGUCAGCUUCUCUGAGAGAUUAACA | 0.197 ± 0.0075
10 | UAGUGAGUCACCUUGCUCUGAGAGAUUAACA | 0.351 ± 0.077
11 | UAGUGACAGACCUACUCUGAGACAUUAACA | 0.0185 ± 0.0063
12 | UAGUGACAGACCUUCUGUGAGAGAUUAUGA | 0.0075 ± 0.0057
13 | UAGUGACAGUCCUACUCUGUGAGAUUAACA | 0.00893 ± 0.0024
14 | UAGUGAGUCACCAUCUGUGAGAGAUUAACA | 0.0966 ± 0.0074
15 | UAGUGACAGUGCUUCUCUGAGAGAUUAAGA | 0.00341 ± 0.0034
16 | UAGUGACUCACCUUCUCUGAGAAGAUUAACA | 0.0306 ± 0.0083
17 | UAGUCUGUCACCUACUCUGAGAGAUUUACA | 0.147 ± 0.019
18 | UAGUGACUGACCAUCUCUGAGAGAUUAACA | 0.0929 ± 0.0065
19 | UAGUGACUGACCUUCUCUGAGAGAUUAUCA | 0.104 ± 0.024
20 | UAGUGUGUCACCUUCUCUGAUAGAUUAACA | 0.0742 ± 0.0068
21 | UAGUGACAGUGGAUCUCUGAGGAUUAACA | < 0.0001
22 | UAGUGACAGACCUUCUCUGAGAGAUCUAACA | 0.0718 ± 0.019
23 | UAGUCUGUCAGCUUCUCUGAGAGAUUAUGA | 0.00384 ± 0.0032

Row | Sequence | pre-steady-state target cleavage rate
24 | UAGUCUGUCACCUUCUCUGGAGAUUAACA | 0.0418 ± 0.013
25 | UAGUGACACACCUUCUCUCAGAGAUUAACA | 0.0367 ± 0.0073
26 | UAGUGUGUCACGUUCUCUGAGACAUUAACA | 0.0285 ± 0.0084
27 | UAGUGAGUCACCUUUCUCUGAGAGAUUAACA | 0.197 ± 0.013
28 | UAGUGUGUCACCUUCUGUGAGAGAUUAUCA | 0.0181 ± 0.008
29 | UAGUGUCUCACCUACUCUGAGAGAUUAACA | 0.135 ± 0.01
30 | UAGUGACACACCUUCUCUGAGAGAUUAAGCA | 0.185 ± 0.028
31 | UAGUGAGUCACCAUCUCUGAGAGAAUAACA | 0.106 ± 0.02
32 | UAGUGACUCACCUUCUCCGAGAGAUUAACA | 0.116 ± 0.027
33 | UAGUGACACACCUUCUCUGAGAGAUGUAACA | 0.19 ± 0.027
34 | UAGUCUGUCACCUGCUCUGAGAGAUUAACA | 0.175 ± 0.011
35 | UAGUGACUCUCCUACUCUGAGAGAUUAACA | 0.0747 ± 0.0051
36 | UAGUGACAGACCUUCUCUGAGAGAUAUUCA | 0.00527 ± 0.0044
37 | UAGUGACACUCCUUCUCUGAGAGAUUAAGA | 0.0228 ± 0.0074
38 | UAGUGAGUCACCUUCUCUGAGAGAUUAACA [g2:g24:cont:t1A] | 0.25 ± 0.021
39 | UAGUGACAGACCCUUCUCUGAGAGAUUAACA | 0.067 ± 0.013
40 | UAGUGACAGUCCAAGUCUGAGAGAUUAACA | 0.00651 ± 0.0024
41 | UAGUGACAGUGCUCUCUGAGAGAUUAACA | 0.00529 ± 0.0016
42 | UAGUGACAGAUCCUUCUCUGAGAGAUUAACA | 0.122 ± 0.01
43 | UAGUGACAGUGCAUUCUCUGAGAGAUUAACA | 0.00906 ± 0.0026
44 | UAGUGAGUCACGUUCUCUGAGAGAUAAACA | 0.0577 ± 0.013
45 | UAGUGUCGUCACCUUCUCUGAGAGAUUAACA | 0.173 ± 0.011
46 | UAGUGUCACACCUUCUCUGAGAGAUUAAGA | 0.203 ± 0.043

Row | Sequence | pre-steady-state target cleavage rate
47 | UAGUGUGUCACCUACUCUCAGAGAUUAACA | 0.0317 ± 0.0066
48 | UAGUGACUGACCUUCUCUGAGAGAUUAACA | 0.14 ± 0.011
49 | UAGUGACACAGCUUCUCUGAGAGAUUAUCA | 0.0365 ± 0.011
50 | UAGUGAGUCACCUUCUCUGUGAGAUUAUGA | 0.0348 ± 0.01
51 | UAGUCUGUCUCCUUCACUGAGAGAUUAACA | 0.0957 ± 0.01
52 | UAGUGUGUCACCUUCUCUGAGAGAUCUAACA | 0.306 ± 0.071
53 | UAGUGACAGUGCUUCUCUGAGAGAGUUAACA | 0.0191 ± 0.0046
54 | UAGUCUGUCACCUCUCUCUGAGAGAUUAACA | 0.164 ± 0.015
55 | UAGUGACAGACCUUCUCUGAGAGAUAAACA | 0.0539 ± 0.011
56 | UAGUGAGUCACGUUCUCUGAGAGAUUAUGA | 0.035 ± 0.014
57 | UAGUGACAGUGGUUGCUCUGAGAGAUUAACA | 0.00256 ± 0.0021
58 | UAGUGAGUCACCUUCUCUGAUGAGAUUAACA | 0.037 ± 0.012
59 | UAGUGACACACCAUCACUGAGAGAUUAACA | 0.0913 ± 0.011
60 | UAGUGACAGUCCUUCGUCUGAGAGAUUAACA | 0.00801 ± 0.0026
61 | UAGUGACAGUCCUUCUCUGAGAUGAUUAACA | 0.0422 ± 0.0057
62 | UAGUGACAGUGCUUGUCUGAGUGAUUAACA | 0.00281 ± 0.0027
63 | UAGUGACACUCCUUCUCUCAGAGAUUAACA | 0.0254 ± 0.0053
64 | UAGUGACUCACCUUCUCUGAGAGAUAUUCA | 0.0272 ± 0.013
65 | UAGUGUGUCACCUUCUCUGAGAGUUUAACA | 0.316 ± 0.078
66 | UAGUGAGUCUCCUUCUCAGAGAGAUUAACA | 0.0772 ± 0.013
67 | UAGUGUGUCACCGUUCUCUGAGAGAUUAACA | 0.122 ± 0.0097
68 | UAGUCUGUCGCCUUCUCUGAGAGAUUAACA | 0.224 ± 0.019
69 | UAGUCUGUCACCUUCUCUGACGAGAUUAACA | 0.0187 ± 0.007

Row | Sequence | pre-steady-state target cleavage rate
70 | UAGUGACAGACCUUCACAGAGAGAUUAACA | 0.0161 ± 0.0072
71 | UAGUGACAGUGGAACUCUGACAGAUUAACA | < 0.0001
72 | UAGUGACAGUCCUUCUCUGAGAUAUUAACA | 0.0253 ± 0.0072
73 | UAGUGACAGACCUUGUCUGAGAGAUUAUCA | 0.00959 ± 0.007
74 | UAGUGACUCACCAUCUCUGAGAGUUUAACA | 0.0885 ± 0.018
75 | UAGUGACAGUGGAAGUCUGAGAGAUUAAGA | < 0.0001
76 | UAGUGACAGACCAUCUCUGAGAGAUUAUCA | 0.0129 ± 0.0056
77 | UAGUGACAGUGCUUCUCUGACAGAUAAACA | < 0.0001
78 | UAGUGACAGACCUACUCUGAGAGAUUAUCA | 0.032 ± 0.0083
79 | UAGUGACAGUGCUUCUCAGAGACAUUAACA | 0.00484 ± 0.0036
80 | UAGUGACAGUCCUUCUCUGAGAGAAUUAACA | 0.0432 ± 0.012
81 | UAGUGACAGUCCUUCUCUGACAGAUUAACA | 0.00834 ± 0.0028
82 | UAGUGACAGUCCUUCUCUGAGUCUAAUUGA [g10:g20:cont:t1A] | < 0.0001
83 | UAGUGAGUCACCUUCUCUGAGAGAUUUACA | 0.136 ± 0.038
84 | UAGUGACAGUGCUACUCUGUGAGAUUAACA | 0.00373 ± 0.0014
85 | UAGUGACAGACCUUCUCAGAGAGAUUAAGA | 0.0161 ± 0.006
86 | UAGUGACAGUGCCUUCUCUGAGAGAUUAACA | 0.0773 ± 0.0049
87 | UAGUGACUCACCUUCACUGAGAGAUUUACA | 0.154 ± 0.027
88 | UAGUGACAGUCUCUUCUCUGAGAGAUUAACA | 0.105 ± 0.019
89 | UAGUGUGUCACCAUCUCAGAGAGAUUAACA | 0.0929 ± 0.0095
90 | UAGUGACAGUGGUUCUCUGAGAGAUUAACCA | 0.0085 ± 0.0022
91 | UAGUGACACACCUAGACUGAGAGAUUAACA | 0.0101 ± 0.0027
